Data taken from a collection of fitness landscapes (doi:10.1016/j.celrep.2020.107928).
Whole data set: some 81,000 sequences, median “one-hybrid fitness for binding parS DNA” near -0.17, cut for the highest 2% near 0.51. Some of the results follow.

B1: Caulobacter ParB omega fusion; a variant is named by its letters at X, in order, B8GW30 (parent)
chain: MESVVVGEPGMSEGRRGLGRGLSALLGEVDAAPAQAPGEQLGGSREAPIEILQRNPDQPRRTFREEDLEDLSNSIREKGVLQPILVRPSPDTAGEYQIVAGERAWRAAQRAGLKTVPIMVRELDDLAVLEIGIIENVQRADLNVLEEALSYKVLMEKFERTQENIAQTIGKSXSHVANXMRLLXLPDEVQSYLVSGELTAXHARAIAAAADPVALAKQIIEGGLSVRETEALARKAPNLSAGKSKGGRPPRVKDTDTQALESDLSSVLGLDVSIDHRGSTGTLTITYATLEQLDDLCNRLTRGI

Variants of: B1
Test: one-hybrid fitness for binding parS DNA (scaled: cognate 1, non-cognate 0); higher = stronger binding
Details: with parS DNA site
Summary of the method: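 Fitness is the rescaled log change in variant-to-wild-type read ratio, measured by Illumina sequencing of plasmids before and after bacterial one-hybrid selection. The scale puts cognate at 1 and non-cognate at 0. Selection of Caulobacter ParB libraries, four specificity codons randomised, took place in E. coli USO with a HIS3 reporter, site 19 bp from the promoter, over 48 hours at 37°C on M9-minus-histidine with 0.1 mM IPTG and 5 mM 3-AT.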

Row | Variant | one-hybrid fitness for binding parS DNA
1 | ITYT | ≤ 0.2
2 | ERRK | ≤ 0.2
3 | QVQQ | ≤ 0.2
4 | IKGR | ≤ 0.2
5 | RVTW | ≤ 0.2
6 | CRPH | ≤ 0.2
7 | SPVR | ≤ 0.2
8 | SAWA | ≤ 0.2
9 | PMWG | ≤ 0.2
10 | ANVA | ≤ 0.2
11 | RGAG | 0.661
12 | TLGR | ≤ 0.2
13 | PHNK | ≤ 0.2
14 | VTDR | ≤ 0.2
15 | SHMS | ≤ 0.2
16 | ACNT | ≤ 0.2
17 | QIQI | ≤ 0.2
18 | NACS | ≤ 0.2
19 | VMYT | 0.293
20 | RPSF | ≤ 0.2
21 | SYKT | ≤ 0.2
22 | LLYG | ≤ 0.2
23 | WNKA | ≤ 0.2
24 | DMKT | ≤ 0.2
25 | ACCL | ≤ 0.2
26 | RGKN | 0.369

Row | Variant | one-hybrid fitness for binding parS DNA
27 | SSEK | ≤ 0.2
28 | AHCG | ≤ 0.2
29 | TESH | ≤ 0.2
30 | CNNN | ≤ 0.2
31 | KSEL | ≤ 0.2
32 | NKYT | ≤ 0.2
33 | FDPT | ≤ 0.2
34 | VCWS | ≤ 0.2
35 | FHTS | ≤ 0.2
36 | PYYA | ≤ 0.2
37 | WGCF | ≤ 0.2
38 | DCAS | ≤ 0.2
39 | HFSW | ≤ 0.2
40 | TTCF | ≤ 0.2
41 | QMFF | ≤ 0.2
42 | SKQY | ≤ 0.2
43 | RLWR | ≤ 0.2
44 | RCKK | ≤ 0.2
45 | CLTL | ≤ 0.2
46 | STMT | ≤ 0.2
47 | LRMR | ≤ 0.2
48 | VDDV | ≤ 0.2
49 | PQWD | ≤ 0.2
50 | VDGG | ≤ 0.2
51 | AFQS | ≤ 0.2
52 | YSII | ≤ 0.2

Row | Variant | one-hybrid fitness for binding parS DNA
53 | GFNV | ≤ 0.2
54 | AYRP | ≤ 0.2
55 | EYTC | ≤ 0.2
56 | PVSN | ≤ 0.2
57 | TRSN | ≤ 0.2
58 | TIMC | ≤ 0.2
59 | ARNF | ≤ 0.2
60 | LMFF | ≤ 0.2
61 | RFCF | ≤ 0.2
62 | RLVC | 0.962
63 | IYIS | ≤ 0.2
64 | WWTR | ≤ 0.2
65 | LLQA | ≤ 0.2
66 | IFAI | ≤ 0.2
67 | SMFT | ≤ 0.2
68 | PQSD | ≤ 0.2
69 | GSNK | ≤ 0.2
70 | SAQR | ≤ 0.2
71 | FDGW | ≤ 0.2
72 | FFHT | ≤ 0.2
73 | FKLG | ≤ 0.2
74 | CGYV | ≤ 0.2
75 | CVGN | ≤ 0.2
76 | PNCQ | ≤ 0.2
77 | KRYM | ≤ 0.2
78 | MSHL | ≤ 0.2

Row | Variant | one-hybrid fitness for binding parS DNA
79 | PRVK | ≤ 0.2
80 | SLWR | ≤ 0.2
81 | TCTK | ≤ 0.2
82 | IVEG | ≤ 0.2
83 | LKFV | ≤ 0.2
84 | HMCT | ≤ 0.2
85 | SLRN | ≤ 0.2
86 | CYNS | ≤ 0.2
87 | HDCW | ≤ 0.2
88 | ALNA | ≤ 0.2
89 | SVEC | ≤ 0.2
90 | VTLG | ≤ 0.2
91 | ALGW | ≤ 0.2
92 | LCMK | ≤ 0.2
93 | RCYM | 0.369
94 | SMHF | ≤ 0.2
95 | HAQV | ≤ 0.2
96 | SVGI | ≤ 0.2
97 | YRKC | 0.388
98 | FIMT | ≤ 0.2
99 | LWQL | ≤ 0.2
100 | PVMC | ≤ 0.2
101 | DPTT | ≤ 0.2
102 | KHRN | ≤ 0.2
103 | ILSP | ≤ 0.2
104 | GEAK | ≤ 0.2

Row | Variant | one-hybrid fitness for binding parS DNA
105 | ASRK | ≤ 0.2
106 | PMGP | ≤ 0.2
107 | GHWS | ≤ 0.2
108 | VANI | ≤ 0.2
109 | HRLL | ≤ 0.2
110 | EHAR | ≤ 0.2
111 | HDGM | ≤ 0.2
112 | QYDC | ≤ 0.2
113 | LVTF | ≤ 0.2
114 | QSHR | ≤ 0.2
115 | AHEF | ≤ 0.2
116 | SLSH | ≤ 0.2
117 | HCNS | ≤ 0.2
118 | THEL | ≤ 0.2
119 | HNSR | ≤ 0.2
120 | RDMC | ≤ 0.2
121 | GVPN | ≤ 0.2
122 | KVGC | ≤ 0.2
123 | QSFS | ≤ 0.2
124 | QQNI | ≤ 0.2
125 | PFAS | ≤ 0.2
126 | RCSN | 0.44
127 | QICG | ≤ 0.2
128 | PLLQ | ≤ 0.2
129 | APER | ≤ 0.2
130 | DFPT | ≤ 0.2

Row | Variant | one-hybrid fitness for binding parS DNA
131 | YCHY | ≤ 0.2
132 | LETY | ≤ 0.2
133 | KSLK | ≤ 0.2
134 | RCHD | ≤ 0.2
135 | VCCS | ≤ 0.2
136 | IGVS | ≤ 0.2
137 | LFGS | ≤ 0.2
138 | RERG | 0.388
139 | VNDE | ≤ 0.2
140 | LYMS | ≤ 0.2
141 | LQYC | ≤ 0.2
142 | QAFN | ≤ 0.2
143 | ASGC | ≤ 0.2
144 | FTFG | ≤ 0.2
145 | SWNG | ≤ 0.2
146 | AELL | ≤ 0.2
147 | SAPG | ≤ 0.2
148 | PHML | ≤ 0.2
149 | MREW | ≤ 0.2
150 | IDNC | ≤ 0.2
151 | HDFR | ≤ 0.2
152 | LTVD | ≤ 0.2
153 | LVDW | ≤ 0.2
